# Where “and” joins values, the source holds several entries; their conditions need not be identical. Equal entries are not always repeated. The whole screen tested about 410,000 compounds, of which about 6,400 (1.6%) were called active. This list was built around the results that the source calls inconclusive (neither active nor inactive); the mix of calls is not that of the screen. The call rests on the fitted dose curve; in most records, active means well fitted inhibition curve with a large enough effect; inconclusive means small, poorly fitted or top-dose-only effect; inactive means no such curve, though single readings can be large or run the other way. A potency beside an inconclusive call is a rough fit, not a confirmed value.
# Biological target: Glucagon-like peptide 1 receptor (Homo sapiens) (UniProt P43220)
# Sequence of UniProt P43220 (P43220 whole entry, looked up): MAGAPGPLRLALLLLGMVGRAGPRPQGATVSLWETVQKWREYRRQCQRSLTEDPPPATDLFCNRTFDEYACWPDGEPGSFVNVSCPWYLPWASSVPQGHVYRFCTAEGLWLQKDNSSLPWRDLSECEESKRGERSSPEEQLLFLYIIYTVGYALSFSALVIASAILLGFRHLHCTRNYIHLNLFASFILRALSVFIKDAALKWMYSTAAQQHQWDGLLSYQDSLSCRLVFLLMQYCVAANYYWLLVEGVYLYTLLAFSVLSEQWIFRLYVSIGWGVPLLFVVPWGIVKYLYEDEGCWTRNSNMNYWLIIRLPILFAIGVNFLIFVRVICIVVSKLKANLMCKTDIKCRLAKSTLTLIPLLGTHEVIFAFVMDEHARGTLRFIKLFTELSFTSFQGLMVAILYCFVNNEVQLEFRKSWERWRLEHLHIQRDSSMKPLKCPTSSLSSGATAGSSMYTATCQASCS
# Test: qHTS of GLP-1 Receptor Inverse Agonists (Inhibition Mode); further: nearly all actives have a fitted effect of over 55% in size
# Details: HEK293 GLP-1R CRE-luciferase, luminescence, 24 h, GLP-1R form is constitutively active; activity change, negative = inhibition: at 38.3 µM (top of the series) unless noted
# Procedure, shortened: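 qHTS in 1536-well format: reporter HEK293 cells expressing constitutive GLP-1R activity in DMEM + 10% Nu serum, 24 hr with compounds at 37 deg C, luminescence read after 12 min with detection reagent.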
# On the % scale 0 is the no-effect control and ±100 the full control effect; potency means the concentration at half of the fitted maximal effect; tags describe the fitted curve by direction and shape.
SMILES,Potency,"activity change, negative = inhibition"
CCNC(=O)NC(=O)C(C)Sc1nc2ccccc2n1CC(C)C (stereo unspecified),"inconclusive: 17.8 µM [inhibitor, partial curve, poor fit]",
COc1cc(CNc2cccc3[nH]c(C(F)(F)F)nc23)cc(OC)c1,,inactive: -11.9%
O=S(=O)(Cc1ccccc1)C(c1ccccc1)S(=O)(=O)Cc1ccccc1,"inconclusive: 11.2 µM [inhibitor, partial curve]",
CC(C)(C)n1nc2c(c1NC(=O)COc1ccc(Cl)cc1)CSC2,"inconclusive: 10 µM [inhibitor, partial curve]",
O=C(N/N=C/C1CC2CCC1C2)c1ccc2c(c1)OCO2 (stereo unspecified),,inactive: 0%
O=C(NCCOc1ccccc1)c1cc([N+](=O)[O-])ccc1N1CCOCC1,"inconclusive: 2.51 µM [inhibitor, full curve]",
COc1cccc(NC(=O)CN2C(=O)CSc3ccc(S(=O)(=O)N4CCCCC4)cc32)c1,"inconclusive: 2.51 µM [inhibitor, partial curve, poor fit]",
CCOc1ccccc1NC(=O)CCS(=O)(=O)c1ccc2c(c1)oc(=O)n2C,,inactive: 8.54%
CCN(CC)S(=O)(=O)c1cc(NC(=O)c2ccc(Br)s2)ccc1C,"inconclusive: 7.08 µM [inhibitor, partial curve, poor fit]",
CCc1nc2c(c(=O)c3ccccc3n2C)c(=O)n1C1CCCCCC1,"inconclusive: 3.55 µM [inhibitor, full curve, poor fit]",
COc1ccc(CNC(=O)CCCn2ccc3cc(S(=O)(=O)N4CCCC4)ccc32)cc1,"inconclusive: 11.2 µM [inhibitor, partial curve, poor fit] and inconclusive: 1.78 µM [inhibitor, partial curve, poor fit]",
CC1(C)Cc2ccccc2C2=NNC(=O)C2=N1,"inconclusive: 12.6 µM [inhibitor, partial curve, poor fit]",
Cn1c2ccccc2c2cc(/C=N/NC(=O)c3cc(O)cc(O)c3)ccc21,"inconclusive: 5.01 µM [inhibitor, full curve, poor fit]",
Cc1ccc(-c2noc(C3CCCN(C(=O)c4ccc(Cl)cc4)C3)n2)o1 (stereo unspecified),"inconclusive: 8.91 µM [inhibitor, partial curve, poor fit]",
Cc1ccc(NC(=O)c2csc3c2CCCC3)cc1,"inconclusive: 31.6 µM [inhibitor, single point]",
Cc1cc(C)cc(N(CC(=O)Nc2c(C)cc(C)cc2C)S(=O)(=O)c2c(C)nn(C)c2C)c1,"inconclusive: 11.2 µM [inhibitor, partial curve]",

# Reference: PubChem BioAssay AID624417 (National Center for Advancing Translational Sciences (NCATS), 2012)
